Read-outs that look alike come from different tables or passages of the source. Results are given in words; binding and its absence hold for the method and conditions named. Binding seen in cells or lysates may run through a third protein. Some results given as binding are weak or reduced against the parent protein; the word gives no strength. For part of these data: Tags and fused reporters may be left off the sequences shown. One block for each molecule: values may come before it.
How the values were obtained:
HA-ASCT2, wild type = biological target: T1, HA-ASCT2, wild type (UniProt Q15758); test: co-IP; HEK293 cells transfected with plasmids; IP lysis buffer (50 mM Tris-HCl pH 8.0, 120 mM NaCl, 0.5% NP40, 1 mM EDTA); HA antibody overnight at 4 °C; immunoblot
T1 sequence: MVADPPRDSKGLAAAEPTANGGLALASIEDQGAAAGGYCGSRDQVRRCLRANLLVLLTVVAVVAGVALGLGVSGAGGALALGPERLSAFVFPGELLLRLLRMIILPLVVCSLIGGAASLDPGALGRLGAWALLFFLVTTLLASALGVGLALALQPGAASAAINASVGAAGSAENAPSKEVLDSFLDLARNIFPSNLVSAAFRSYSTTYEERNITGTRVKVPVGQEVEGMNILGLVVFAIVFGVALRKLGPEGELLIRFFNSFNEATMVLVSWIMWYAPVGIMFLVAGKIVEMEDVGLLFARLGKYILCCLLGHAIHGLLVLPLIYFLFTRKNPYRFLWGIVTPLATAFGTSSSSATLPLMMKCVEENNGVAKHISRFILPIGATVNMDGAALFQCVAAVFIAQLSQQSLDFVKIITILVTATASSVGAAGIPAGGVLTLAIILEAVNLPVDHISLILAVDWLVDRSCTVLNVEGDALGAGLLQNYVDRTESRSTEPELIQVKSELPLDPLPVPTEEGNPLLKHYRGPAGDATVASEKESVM

By UniProt entry, the sequences of proteins in these tests, tags left out. Where a name states a change or a piece, a line headed by the entry shows the natural chain unless it says otherwise.
UniProt O43791: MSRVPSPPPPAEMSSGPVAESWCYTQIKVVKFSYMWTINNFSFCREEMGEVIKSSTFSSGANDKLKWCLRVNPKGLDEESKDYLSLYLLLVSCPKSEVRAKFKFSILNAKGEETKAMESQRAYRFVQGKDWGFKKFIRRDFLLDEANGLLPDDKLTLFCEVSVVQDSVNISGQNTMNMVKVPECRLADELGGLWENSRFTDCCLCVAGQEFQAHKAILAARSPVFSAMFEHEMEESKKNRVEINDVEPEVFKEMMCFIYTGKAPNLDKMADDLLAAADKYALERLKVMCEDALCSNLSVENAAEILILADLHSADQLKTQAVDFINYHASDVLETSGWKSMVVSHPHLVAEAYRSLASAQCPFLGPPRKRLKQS
UniProt P48730: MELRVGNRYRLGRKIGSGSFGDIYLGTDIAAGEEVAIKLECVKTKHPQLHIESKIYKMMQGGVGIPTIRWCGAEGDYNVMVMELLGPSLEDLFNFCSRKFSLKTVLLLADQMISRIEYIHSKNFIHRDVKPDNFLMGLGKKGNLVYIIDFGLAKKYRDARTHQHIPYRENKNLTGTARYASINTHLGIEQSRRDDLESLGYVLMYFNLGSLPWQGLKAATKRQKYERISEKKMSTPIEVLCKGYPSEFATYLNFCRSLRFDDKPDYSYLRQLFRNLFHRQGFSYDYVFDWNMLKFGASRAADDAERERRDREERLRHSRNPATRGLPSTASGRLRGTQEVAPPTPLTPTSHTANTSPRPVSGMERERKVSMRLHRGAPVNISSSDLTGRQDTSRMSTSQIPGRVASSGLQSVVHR
UniProt Q9UKT5: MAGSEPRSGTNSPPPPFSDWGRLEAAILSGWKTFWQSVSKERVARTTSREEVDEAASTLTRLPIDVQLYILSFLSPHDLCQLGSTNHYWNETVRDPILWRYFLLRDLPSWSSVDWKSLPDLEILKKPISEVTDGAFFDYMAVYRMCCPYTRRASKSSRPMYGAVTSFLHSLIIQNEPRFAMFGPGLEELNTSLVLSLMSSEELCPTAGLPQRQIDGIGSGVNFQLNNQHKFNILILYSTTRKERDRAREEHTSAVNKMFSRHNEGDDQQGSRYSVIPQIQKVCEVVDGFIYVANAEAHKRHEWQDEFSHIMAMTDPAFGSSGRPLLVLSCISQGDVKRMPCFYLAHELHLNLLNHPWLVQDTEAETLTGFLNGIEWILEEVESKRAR
UniProt Q13309: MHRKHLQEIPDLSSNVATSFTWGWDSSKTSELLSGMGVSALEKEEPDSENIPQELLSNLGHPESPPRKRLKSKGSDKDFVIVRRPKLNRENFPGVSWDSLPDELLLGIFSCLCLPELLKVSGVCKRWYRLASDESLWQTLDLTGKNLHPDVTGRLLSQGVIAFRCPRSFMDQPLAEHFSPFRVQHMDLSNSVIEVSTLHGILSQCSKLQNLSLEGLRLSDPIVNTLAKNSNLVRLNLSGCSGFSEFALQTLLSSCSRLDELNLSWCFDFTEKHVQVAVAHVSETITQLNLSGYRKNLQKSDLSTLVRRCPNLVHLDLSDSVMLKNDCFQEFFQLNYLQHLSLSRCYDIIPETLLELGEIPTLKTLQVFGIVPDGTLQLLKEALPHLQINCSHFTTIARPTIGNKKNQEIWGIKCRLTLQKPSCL
UniProt P25098: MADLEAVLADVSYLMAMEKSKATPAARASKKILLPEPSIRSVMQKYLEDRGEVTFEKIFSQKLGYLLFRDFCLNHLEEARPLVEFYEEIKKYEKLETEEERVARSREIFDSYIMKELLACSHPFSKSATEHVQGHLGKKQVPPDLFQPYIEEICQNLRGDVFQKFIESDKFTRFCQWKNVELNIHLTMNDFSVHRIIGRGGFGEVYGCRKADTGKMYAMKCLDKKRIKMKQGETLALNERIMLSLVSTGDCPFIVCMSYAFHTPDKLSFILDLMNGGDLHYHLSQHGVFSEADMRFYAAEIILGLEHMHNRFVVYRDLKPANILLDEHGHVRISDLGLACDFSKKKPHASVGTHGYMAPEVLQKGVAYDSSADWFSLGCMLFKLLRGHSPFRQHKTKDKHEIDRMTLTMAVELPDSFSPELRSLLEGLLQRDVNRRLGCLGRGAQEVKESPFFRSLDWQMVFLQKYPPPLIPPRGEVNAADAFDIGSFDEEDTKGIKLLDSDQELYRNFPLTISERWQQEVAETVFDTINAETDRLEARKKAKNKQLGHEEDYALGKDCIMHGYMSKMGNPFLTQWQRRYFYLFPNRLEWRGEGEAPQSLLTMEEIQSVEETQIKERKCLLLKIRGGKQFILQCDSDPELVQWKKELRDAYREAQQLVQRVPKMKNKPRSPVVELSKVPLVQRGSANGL

FLAG-SPOP S222A = FLAG-SPOP S222A (UniProt O43791); test: co-IP; SPOP dimerisation: HEK293 cells transfected with the indicated SPOP plasmids, cultured in glutamine-containing or glutamine-free media (for the S222 mutants after siRNA to the SPOP 3′-UTR, glutamine-free medium 12 h); FLAG-agarose beads; immunoblot
FLAG-SPOP S222D = FLAG-SPOP S222D (UniProt O43791); test: as above
[1] = biological target: Speckle-type POZ protein (SPOP), endogenous (human (endogenous in SK-BR-3)) (UniProt O43791); test: co-IP; endogenous proteins; SK-BR-3 cell lysate precipitated with anti-SPOP antibody, associated protein detected by immunoblot; glutamine deprivation also tested (Supplementary Fig. 6h, i)
[2] = biological target: Speckle-type POZ protein (SPOP), endogenous (human (endogenous in SK-BR-3)) (UniProt O43791); test: as above; remark: listed apart in the source
[3] = biological target: CK1δ, endogenous (human (endogenous in SUM159)) (UniProt P48730); test: co-IP; endogenous proteins; SUM159 cell lysate precipitated with anti-CK1δ antibody, associated ASCT2 detected by immunoblot
FBXO4 = FBXO4 (UniProt Q9UKT5); test: pull-down; Supplementary Fig. 2c, legend not shown; nine F-box proteins tested for pulling down ASCT2
SKP2 = SKP2 (UniProt Q13309); test: as above
FBXL7 = biological target: T2, FBXL7 (UniProt Q9UJT9); test: as above
T2 sequence: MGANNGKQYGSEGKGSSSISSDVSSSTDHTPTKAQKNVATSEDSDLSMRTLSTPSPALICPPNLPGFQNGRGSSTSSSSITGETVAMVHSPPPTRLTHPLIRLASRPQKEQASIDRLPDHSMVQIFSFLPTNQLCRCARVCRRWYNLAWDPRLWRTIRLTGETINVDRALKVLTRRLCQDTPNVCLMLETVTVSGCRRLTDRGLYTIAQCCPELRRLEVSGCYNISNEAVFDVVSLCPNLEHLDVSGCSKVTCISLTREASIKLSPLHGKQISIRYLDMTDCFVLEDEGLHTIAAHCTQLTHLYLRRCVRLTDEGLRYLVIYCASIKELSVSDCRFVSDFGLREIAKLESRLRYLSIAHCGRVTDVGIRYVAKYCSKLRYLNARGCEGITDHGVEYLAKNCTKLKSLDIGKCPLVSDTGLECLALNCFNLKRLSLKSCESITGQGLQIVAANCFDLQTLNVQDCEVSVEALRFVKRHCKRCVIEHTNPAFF

FLAG-SPOP, wild type = FLAG-SPOP, wild type (UniProt O43791); test: co-IP; HEK293 cells transfected with plasmids; IP lysis buffer (50 mM Tris-HCl pH 8.0, 120 mM NaCl, 0.5% NP40, 1 mM EDTA); FLAG-agarose beads overnight at 4 °C; immunoblot

binding (FBXO4): binds | binding (SKP2): binds | binding (FBXL7): binds
B2: ASCT2 as used in the pull-down with F-box proteins (Supplementary Fig. 2c) (protein, UniProt Q15758 1-541)
chain: MVADPPRDSKGLAAAEPTANGGLALASIEDQGAAAGGYCGSRDQVRRCLRANLLVLLTVVAVVAGVALGLGVSGAGGALALGPERLSAFVFPGELLLRLLRMIILPLVVCSLIGGAASLDPGALGRLGAWALLFFLVTTLLASALGVGLALALQPGAASAAINASVGAAGSAENAPSKEVLDSFLDLARNIFPSNLVSAAFRSYSTTYEERNITGTRVKVPVGQEVEGMNILGLVVFAIVFGVALRKLGPEGELLIRFFNSFNEATMVLVSWIMWYAPVGIMFLVAGKIVEMEDVGLLFARLGKYILCCLLGHAIHGLLVLPLIYFLFTRKNPYRFLWGIVTPLATAFGTSSSSATLPLMMKCVEENNGVAKHISRFILPIGATVNMDGAALFQCVAAVFIAQLSQQSLDFVKIITILVTATASSVGAAGIPAGGVLTLAIILEAVNLPVDHISLILAVDWLVDRSCTVLNVEGDALGAGLLQNYVDRTESRSTEPELIQVKSELPLDPLPVPTEEGNPLLKHYRGPAGDATVASEKESVM

binding (FLAG-SPOP, wild type): binds
B4: HA-ASCT2-3D (protein, UniProt Q15758 1-541)
chain: MVADPPRDSKGLAAAEPTANGGLALASIEDQGAAAGGYCGSRDQVRRCLRANLLVLLTVVAVVAGVALGLGVSGAGGALALGPERLSAFVFPGELLLRLLRMIILPLVVCSLIGGAASLDPGALGRLGAWALLFFLVTTLLASALGVGLALALQPGAASAAINASVGAAGSAENAPSKEVLDSFLDLARNIFPSNLVSAAFRSYSTTYEERNITGTRVKVPVGQEVEGMNILGLVVFAIVFGVALRKLGPEGELLIRFFNSFNEATMVLVSWIMWYAPVGIMFLVAGKIVEMEDVGLLFARLGKYILCCLLGHAIHGLLVLPLIYFLFTRKNPYRFLWGIVTPLATAFGTDDDSATLPLMMKCVEENNGVAKHISRFILPIGATVNMDGAALFQCVAAVFIAQLSQQSLDFVKIITILVTATASSVGAAGIPAGGVLTLAIILEAVNLPVDHISLILAVDWLVDRSCTVLNVEGDALGAGLLQNYVDRTESRSTEPELIQVKSELPLDPLPVPTEEGNPLLKHYRGPAGDATVASEKESVM

binding (FLAG-SPOP, wild type): no binding
B5: HA-ASCT2ΔGTSSS (protein, UniProt Q15758)
chain: MVADPPRDSKGLAAAEPTANGGLALASIEDQGAAAGGYCGSRDQVRRCLRANLLVLLTVVAVVAGVALGLGVSGAGGALALGPERLSAFVFPGELLLRLLRMIILPLVVCSLIGGAASLDPGALGRLGAWALLFFLVTTLLASALGVGLALALQPGAASAAINASVGAAGSAENAPSKEVLDSFLDLARNIFPSNLVSAAFRSYSTTYEERNITGTRVKVPVGQEVEGMNILGLVVFAIVFGVALRKLGPEGELLIRFFNSFNEATMVLVSWIMWYAPVGIMFLVAGKIVEMEDVGLLFARLGKYILCCLLGHAIHGLLVLPLIYFLFTRKNPYRFLWGIVTPLATAFSATLPLMMKCVEENNGVAKHISRFILPIGATVNMDGAALFQCVAAVFIAQLSQQSLDFVKIITILVTATASSVGAAGIPAGGVLTLAIILEAVNLPVDHISLILAVDWLVDRSCTVLNVEGDALGAGLLQNYVDRTESRSTEPELIQVKSELPLDPLPVPTEEGNPLLKHYRGPAGDATVASEKESVM

The next lines start with the molecule.

Molecule: FLAG-SPOP, wild type (from UniProt O43791 1-374)
binding (HA-ASCT2, wild type): binds

Molecule: FLAG-SPOP S222A (from UniProt O43791 1-374)
binding (FLAG-SPOP S222A): binds

Molecule: FLAG-SPOP S222D (from UniProt O43791 1-374)
binding (FLAG-SPOP S222D): binds

Molecule: GRK2 (G protein-coupled receptor kinase), endogenous (from UniProt P25098 1-689) (enzyme)
binding [1]: binds

B1: alanine-serine-cysteine transporter 2 (ASCT2; SLC1A5), endogenous (protein, UniProt Q15758 1-541)
chain: MVADPPRDSKGLAAAEPTANGGLALASIEDQGAAAGGYCGSRDQVRRCLRANLLVLLTVVAVVAGVALGLGVSGAGGALALGPERLSAFVFPGELLLRLLRMIILPLVVCSLIGGAASLDPGALGRLGAWALLFFLVTTLLASALGVGLALALQPGAASAAINASVGAAGSAENAPSKEVLDSFLDLARNIFPSNLVSAAFRSYSTTYEERNITGTRVKVPVGQEVEGMNILGLVVFAIVFGVALRKLGPEGELLIRFFNSFNEATMVLVSWIMWYAPVGIMFLVAGKIVEMEDVGLLFARLGKYILCCLLGHAIHGLLVLPLIYFLFTRKNPYRFLWGIVTPLATAFGTSSSSATLPLMMKCVEENNGVAKHISRFILPIGATVNMDGAALFQCVAAVFIAQLSQQSLDFVKIITILVTATASSVGAAGIPAGGVLTLAIILEAVNLPVDHISLILAVDWLVDRSCTVLNVEGDALGAGLLQNYVDRTESRSTEPELIQVKSELPLDPLPVPTEEGNPLLKHYRGPAGDATVASEKESVM
binding [2]: binds | binding [3]: binds

B3: HA-ASCT2-3A (protein, UniProt Q15758 1-541)
chain: MVADPPRDSKGLAAAEPTANGGLALASIEDQGAAAGGYCGSRDQVRRCLRANLLVLLTVVAVVAGVALGLGVSGAGGALALGPERLSAFVFPGELLLRLLRMIILPLVVCSLIGGAASLDPGALGRLGAWALLFFLVTTLLASALGVGLALALQPGAASAAINASVGAAGSAENAPSKEVLDSFLDLARNIFPSNLVSAAFRSYSTTYEERNITGTRVKVPVGQEVEGMNILGLVVFAIVFGVALRKLGPEGELLIRFFNSFNEATMVLVSWIMWYAPVGIMFLVAGKIVEMEDVGLLFARLGKYILCCLLGHAIHGLLVLPLIYFLFTRKNPYRFLWGIVTPLATAFGTAAASATLPLMMKCVEENNGVAKHISRFILPIGATVNMDGAALFQCVAAVFIAQLSQQSLDFVKIITILVTATASSVGAAGIPAGGVLTLAIILEAVNLPVDHISLILAVDWLVDRSCTVLNVEGDALGAGLLQNYVDRTESRSTEPELIQVKSELPLDPLPVPTEEGNPLLKHYRGPAGDATVASEKESVM
binding (FLAG-SPOP, wild type): binds weakly
